PubChem BioAssay AID504832 (National Center for Advancing Translational Sciences (NCATS), 2011)
Among all 310,000 compounds or so, about 18,000 (5.8%) were called active. This list was built around the results that the source calls inconclusive (neither active nor inactive); the mix of calls is not that of the screen. Calls come from the whole dose curve; as a rule, active = well fitted inhibition curve with a large enough effect; inconclusive = small, poorly fitted or top-dose-only effect, or another doubt; inactive = no such curve, though single readings can be large or run the other way. No potency is given beside an inconclusive call; the fits are too rough.
% is set by controls: 0 for no effect and ±100 for the full control effect; potency is the fitted concentration of half-maximal effect; tags give direction and shape of the fitted curve.

Assay: Primary qHTS for delayed death inhibitors of the malarial parasite plastid, 48 hour incubation
Settings: P. falciparum luciferase growth in erythrocytes; series mostly up to 28.7 µM
Procedure, shortened: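 Here the parasites carry a stable luciferase gene and grow inside erythrocytes in Albumax-based RPMI medium with compound for one erythrocytic cycle. Activity is scored as loss of luminescent signal.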
For `CC(C)(C)C(=O)N1N=C(c2ccc(NS(C)(=O)=O)cc2)CC1c1cccs1` (stereo not drawn), the Potency was inconclusive [inhibitor, partial curve]. In the case of `O=C(Nc1ccnn1C1CCN(CCCc2ccccc2)CC1)c1ccccc1Cl`, the Potency is reported as “inactive”. For `Cc1cc(C(=O)CSc2n[nH]c(N)n2)c(C)n1-c1ccc(F)cc1`, the Potency was “inactive”. For `CCCC1=Nc2cc(C(=O)NCCCOCC)ccc2Sc2ccccc21`, the Potency was inconclusive [inhibitor, partial curve, poor fit]. For `CSCCC(C)N1CCC(Oc2ccc(C(=O)N3CCCC3)cc2)CC1` (stereo not drawn), the Potency was inconclusive [inhibitor, partial curve, poor fit]. With `O=C(N/N=C/c1ccc([N+](=O)[O-])o1)c1cccc(S(=O)(=O)N2CCOCC2)c1` the Potency was active: 3.7 µM. With `COc1ccccc1CNS(=O)(=O)c1ccc(-c2cc(C)no2)cc1` the Potency was inconclusive [inhibitor, partial curve, poor fit]. In the case of `Cc1ccc(C)c(S(=O)(=O)N2CCCC2CNC(=O)C(=O)NCc2ccccc2)c1` (stereo not drawn), the Potency is reported as inconclusive [inhibitor, single point]. With `CCCOc1ccc(C(=O)NCCc2ccccc2)cc1` the Potency was “inactive”. For `CC(CCc1ccccc1)NC(=O)COc1ccc(S(=O)(=O)N2CCOCC2)cc1[N+](=O)[O-]` (stereo not drawn), the Potency was inconclusive [inhibitor, partial curve]. For `COC(=O)c1ccccc1NC(=O)c1cccc(NC(=O)C(C)C)c1`, the activity change, negative = inhibition was inactive: -21.8% [at 5.75 µM]. In the case of `COc1ccc(Nc2ccc(S(=O)(=O)N3CCCCC3)cc2[N+](=O)[O-])cc1OC`, the Potency is reported as inconclusive [inhibitor, partial curve]. With `COc1ccccc1CNC(=O)C1CCC(CNS(=O)(=O)c2ccc(NC(C)=O)cc2)CC1` (stereo not drawn) the Potency was inconclusive [inhibitor, single point]. For `Cc1ccc(-c2csc(NC(=O)c3ccc4c(=O)n5c(nc4c3)CCCCC5)n2)cc1`, the Potency was inconclusive [inhibitor, single point]. With `O=C(/C=C/c1cccc([N+](=O)[O-])c1)N1CCN(c2ccc(F)cc2)CC1` the Potency was “inactive”. With `Cc1ccc(O)c(-c2cc(C(=O)Nc3ccc(S(=O)(=O)Nc4nccc(C)n4)cc3)[nH]n2)c1` the Potency was inconclusive [inhibitor, partial curve]. For `CCOC(=O)C1=C(C)Nc2sc(C(=O)c3ccc(C)cc3)c(N)c2C1c1ccc(C(=O)OC)cc1` (stereo not drawn), the Potency was active: 11.7 µM. For `O=C(CN(C1CCCCC1)S(=O)(=O)c1ccc(Cl)cc1)NCCCO`, the Potency was “inactive”.
